Laboratory results reported in the RNAGym collection of RNA variant scans (doi:10.1073/pnas.2313332121).
This sample is rich in variants without activity.

B1: TPR 5TU (parent)
chain: GGAUCUUCUCGAUCUAACAAAAAAGACAAAUCUGCCACAAAGCUUGAGAGCAUCUUCGGAUGCAGAGGCGGCAGCCUUCGGUGGCGCGAUAGCGCCAACGUUCUCAACUAUGACACGCAAAACGCGUGCUCCGUUGAAUGGAGUUUAUCAUG

Variants of: B1
Experiment: polymerase ribozyme fitness, log enrichment relative to wild type (log ratio); higher = more active; in vitro selection for triplet polymerase activity
Outline: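 Each subunit of a heterodimeric triplet polymerase ribozyme was represented by a PCR-built, transcribed mutant library that underwent triplicate single-round in vitro selection with frozen incubation at −7 °C. Extended constructs were recovered by gel excision, streptavidin-bead capture and RT-PCR, and Illumina sequencing of input and output libraries kept genotypes with ≥10 input reads and ≥1 read per output. Fitness is the logarithm of genotype enrichment relative to wild-type enrichment, from inverse-variance-weighted replicate averages, with a logarithm base of 2.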

Variant | polymerase ribozyme fitness (log ratio)
C38A C96G | -0.458
C38A C99A U111G C116U | ≤ -4.2
C38A C99G G100A | ≤ -4.2
C38A C114U C118U A150U | ≤ -4.2
C38A G42C A52G C76U | ≤ -4.2
C38A G42C G48A U82G G84A A97U | ≤ -4.2
C38A G48C G80A G84U G152U | ≤ -4.2
C38A G50C C96A | -4.12
C38A G50U | -0.722
C38A G58A C96G C129G G143A | -2.67
C38A G58U C69A C96A C114A | ≤ -4.2
C38A G62U C75A C85U | ≤ -4.2
C38A G62U G83A A91U C125U U148C G152U | ≤ -4.2
C38A G65U C96G A107G G126A | ≤ -4.2
C38A G67U C87G | ≤ -4.2
C38A G70A C85G U127C | ≤ -4.2
C38A G71A C85G G92U G143A | ≤ -4.2
C38A G83A | -0.746
C38A G84U A97G U130G | ≤ -4.2
C38A G92U C116U G128U C132U | ≤ -4.2
C38A U44A A47U G86U C87G G100A A107G C118U | ≤ -4.2

Variant | polymerase ribozyme fitness (log ratio)
C38A U53A C57G C87A C93G A147C | ≤ -4.2
C38A U53A U56G G88U G124A | ≤ -4.2
C38A U53G A64G G86U U90A C129A U130C G140U | ≤ -4.2
C38A U55A U135A U146C | -1.06
C38A U56A | -0.602
C38A U56A A137G | -2.08
C38A U56A G59A C87G | ≤ -4.2
C38A U56A G68C U78G G92A G126U C132G | ≤ -4.2
C38A U56A G71A G83C A137G | ≤ -4.2
C38A U56G G58C A97U C105A | ≤ -4.2
C38A U61A C96G | -2.38
C38A U90A G92A C103G G117U A138G | ≤ -4.2
C38A U109G G140U | ≤ -4.2
C38A U148A | -4.04
C38G | -0.296
C38G A40C C93A U139C | ≤ -4.2
C38G A40G A49G A60U C93A A121G | ≤ -4.2
C38G A40U U55A G92A U127C | ≤ -4.2
C38G A41C G68A G81A C85U C95U C116G | ≤ -4.2
C38G A41U C79U G92C C123A | ≤ -4.2
C38G A47G G50C C51A G59A A60C C95G C132U | ≤ -4.2

Variant | polymerase ribozyme fitness (log ratio)
C38G A49C C76G C93U C125A U135A G143C U144A | ≤ -4.2
C38G A49U U55A C87A G126A G143C | ≤ -4.2
C38G A52C G65C C95U C118G A122U | ≤ -4.2
C38G A52G C75G | ≤ -4.2
C38G A60C C85A C93U C96U C103G | ≤ -4.2
C38G A64C G70A C118U U130G A137U | ≤ -4.2
C38G A64U G81C G92U A97C U102C A107U U130A | ≤ -4.2
C38G A89G C93A C116G G128A U134G | ≤ -4.2
C38G A98U U109C C116A C125G | ≤ -4.2
C38G A142C | -1.24
C38G C43U G81U G86U A98G C103G A150G U151C | ≤ -4.2
C38G C43U U56A C57U | ≤ -4.2
C38G C51U C95A C99G A106U C125A U134A | ≤ -4.2
C38G C57A A115C U144G | -1.02
C38G C69U G70C U102G A122C C125U | ≤ -4.2
C38G C69U G84U A98U G124U A137G | ≤ -4.2
C38G C75G G84C C103A | ≤ -4.2
C38G C85A C116A A120G | -2.28
C38G C85G C105U A121U G124A | -2.25
C38G C87A A107C C118A G136U G141A C149U | ≤ -4.2
C38G G42C G71C C95A C96A | ≤ -4.2

Variant | polymerase ribozyme fitness (log ratio)
C38G G48C G86A G92A | ≤ -4.2
C38G G50A G86U C116A U151C | ≤ -4.2
C38G G50C G65U G84A C96U C99U U111G G143A | ≤ -4.2
C38G G58C U101G C105G | ≤ -4.2
C38G G68C C85G G126A U139G G140A C149G | ≤ -4.2
C38G G70A C87A U104A A106C C116A U144G | ≤ -4.2
C38G G88C G124C | ≤ -4.2
C38G G92C C95U | -1.62
C38G U45G U56A C93G C123A U127G | ≤ -4.2
C38G U55A U111C G141A U145C | ≤ -4.2
C38G U55G C69U G70A C96G A110C C125U U139G U144G A150U | ≤ -4.2
C38G U77G C103A G126A | ≤ -4.2
C38U | 0.0316
C38U A39C C95U | -2.34
C38U A39C G92U U102G | ≤ -4.2
C38U A40C A60U G68A C93G G117A | ≤ -4.2
C38U A40G | -2.26
C38U A40U G58U U90C G100C C105G C118A | ≤ -4.2
C38U A41C C132U | -1.49
C38U A41C G42U C76G G81C C99U G133U | ≤ -4.2
